According to the supplement of paper PMC3334620:
In all, about 33,000 sequences were measured (“E-score (-0.5 to 0.5)”: median about -0.041, highest 2% from about 0.37 on). The list shows a part of the results.

These sequences were tested against T1, Ecm22 (UniProt Q05958) (assay: PBM E-score (8-mer binding enrichment) (E-score (-0.5 to 0.5)); higher = stronger / more preferred TF binding; most listed sequences are background and not binding sites). Settings: protein concentration: 200 nM; construct: GST-full length.
T1 sequence: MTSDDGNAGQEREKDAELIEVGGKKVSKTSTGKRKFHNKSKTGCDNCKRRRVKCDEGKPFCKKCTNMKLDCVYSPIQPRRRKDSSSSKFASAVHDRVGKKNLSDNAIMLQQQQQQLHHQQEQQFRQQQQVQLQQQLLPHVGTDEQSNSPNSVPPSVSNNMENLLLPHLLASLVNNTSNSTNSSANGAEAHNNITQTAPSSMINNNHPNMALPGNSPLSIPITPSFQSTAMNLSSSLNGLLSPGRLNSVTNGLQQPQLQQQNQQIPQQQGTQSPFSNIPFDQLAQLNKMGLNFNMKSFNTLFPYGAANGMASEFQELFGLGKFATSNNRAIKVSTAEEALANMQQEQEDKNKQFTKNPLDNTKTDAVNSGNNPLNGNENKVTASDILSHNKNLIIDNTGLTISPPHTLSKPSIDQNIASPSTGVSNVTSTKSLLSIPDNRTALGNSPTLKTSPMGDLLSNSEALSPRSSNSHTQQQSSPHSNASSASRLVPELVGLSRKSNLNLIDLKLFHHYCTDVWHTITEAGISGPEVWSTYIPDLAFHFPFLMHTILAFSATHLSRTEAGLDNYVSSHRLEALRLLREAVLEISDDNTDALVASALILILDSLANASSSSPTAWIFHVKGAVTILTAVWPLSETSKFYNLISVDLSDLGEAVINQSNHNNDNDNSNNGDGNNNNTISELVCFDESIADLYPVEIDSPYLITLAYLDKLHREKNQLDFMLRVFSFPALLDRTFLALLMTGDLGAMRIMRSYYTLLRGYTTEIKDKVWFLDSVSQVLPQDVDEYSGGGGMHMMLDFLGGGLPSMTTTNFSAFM
Summary of the method: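 The E-score, a modified Wilcoxon-Mann-Whitney statistic, was computed by the Universal PBM Analysis Suite for every ungapped eight-base word pooled with its reverse complement. Scans behind it were normalised with masliner after bound GST-tagged yeast transcription factors were detected with fluorescent anti-GST. The proteins, at about 100-200 nM, had been applied to universal all-10-mer Agilent arrays made double-stranded by primer extension.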

Sequence | PBM E-score
CACTGAAC | 0.126
ATCCCTAG | -0.121
AAGGGCAC | -0.28
GCATTGCA | -0.166
CGGAGTCC | -0.246
CGCGGCTA | 0.0813
AGCTCATG | -0.0882
CTCTAAAG | -0.199
ACTCATAA | -0.0425
ACGCAACC | 0.0517
AACTACCG | -0.0253
CTCGGAAG | 0.0345
GACCTCTC | 0.0888
CTAGAGAC | -0.191
GGGGTTGA | -0.249
GATAAACC | 0.00425
CGGGTCGA | -0.00467
ACATGTGC | 0.0554
GATGCTGC | -0.112
ACGGATTG | 0.189
CCTACCGA | 0.0195
AAAGGGTG | -0.261
CGTTGGCA | 0.05
AACATCGT | 0.264
ACCGTGTG | -0.0211

Sequence | PBM E-score
GAGGTCTA | 0.0563
GTTAGGCA | -0.322
AATTACTC | -0.165
CGCAATCC | 0.0833
ACTGTCAG | -0.086
AGCTAGAG | -0.0823
CGGCTTTC | -0.00764
ACCCCTCT | -0.217
ACTCCTTC | -0.211
CGAATATC | 0.145
CACCTGAG | -0.272
AGGATAAG | -0.0902
ACAGGAAT | -0.231
GACCAGGA | -0.0856
TGGGTGAA | 0.0282
GCGGCTAA | -0.034
CGATCGAC | 0.00021
ATTCAATA | 0.0713
TATTCTAA | 0.0623
TTCATCAA | -0.0685
TAGCATGA | -0.251
TTCGTCAA | 0.142
AAGAACGT | 0.101
CCCCATGC | -0.239
ACGGGCAA | 0.188

Sequence | PBM E-score
CAGACCCG | -0.0751
ATCAGTAC | 0.125
CTACTATC | 0.047
GTCTAAAC | 0.0979
CAATTCAG | -0.149
AAGCCAAC | 0.114
GCGTATGA | 0.218
AATTATAG | 0.00483
AACCAATG | -0.113
CTAGCGAG | 0.168
AGGTAAGA | 0.0356
ATCAACAT | -0.0773
CCAGTCCC | -0.245
ATTTTCAC | 0.0511
TGCCTCCA | -0.256
CAGCGTGC | -0.173
AAGTGGAG | -0.103
CACGACGA | 0.108
AACGGTGA | 0.195
AATACAAT | 0.095
ATCCGTTC | 0.325
CAAAACGA | 0.278
CAAATTAA | -0.115
ATGAGATC | 0.0336
GAGGATCC | 0.0563

Sequence | PBM E-score
GTCTCGTA | 0.461
ACACATGC | -0.0525
TAAACAGA | -0.218
ATCACCTA | -0.0876
AATCATGC | -0.25
CTCAAGCA | -0.289
CATTCTGC | -0.121
CCTCCAAG | -0.321
AATCGATA | 0.161
AGGCACCA | -0.0947
ACCGTTAT | -0.074
ACTCATCA | -0.13
AGAGCCCG | 0.0255
ATTAACAA | 0.179
GAACACCA | -0.183
GAATGACC | -0.0703
AATAGTTA | 0.0022
ACGCCTAC | -0.172
CCTTCCGC | -0.184
ACCCATCC | -0.125
CATTAGTA | -0.0217
AAGTGGGG | -0.157
GAGCAATA | -0.0848
AGCACTTC | -0.0507
TCGATAGA | 0.042

Sequence | PBM E-score
TCGTTAAA | 0.44
CACATCTC | -0.203
TCATCAAA | -0.111
GCGTCCTA | -0.07
CCCGGCCG | -0.15
CATACATC | -0.035
CAAAGCCA | -0.0435
GGGTACCC | -0.196
CCCAGCAC | -0.127
AATACTGG | -0.0619
GATTGCGA | 0.178
CATATCAG | -0.174
AGATTCTG | -0.133
CGGTTGAC | 0.0991
CGTAAAGA | 0.389
CAGACCCA | -0.131
CTGCTAGA | -0.155
ATACGGGA | 0.389
CGATTGAC | 0.109
CCTATATA | 0.109
ACCCGACA | 0.132
ACGCCAGA | 0.0314
CAAGCTAA | 0.00292
AGACTCCG | -0.193
CGCGGTGC | -0.0645

Sequence | PBM E-score
AAACAGTG | -0.0311
ATCCACAT | 0.00148
AGGGGAGG | -0.127
CAACTTCG | 0.0697
CTTCCTGA | -0.112
AATATTTG | 0.127
AGCGTCCA | -0.201
CGTGACAG | 0.0941
CACCACAC | -0.135
ATCCGACA | 0.127
AGCGCGGG | 0.033
CAACATTG | 0.0128
CCGAAGCA | 0.0708
ATCTGCAC | -0.117
GCTGGATA | 0.00029
CATGTAGA | -0.0172
GACTTTCC | -0.201
AGACGATG | 0.00668
GATGCCAC | -0.148
GGTGTATA | -0.0731
ACCTTAAC | 0.0365
AGTTTCGC | 0.128
AACCGTCC | -0.274
ATTAAGAG | -0.0551
ACCAGCCC | -0.231

Sequence | PBM E-score
CACTAGTA | 0.0245
GACTTACA | 0.13
GATGCCTA | -0.185
GCGGTGCC | -0.173
TAAATCGA | -0.0312
ACCAGGCC | 0.0165
CAGTGGGG | -0.207
GAGGAAAC | 0.0137
CCCGCTAA | -0.0739
ACCTATAA | 0.0606
AACAGATA | -0.0219
CTGCTGTC | -0.0117
ATCGAGTC | 0.0487
GGCAAGCC | -0.285
AAACTTCT | 0.0903
AATTTGTG | 0.153
AAGGACAA | -0.0711
CCGGCTAA | -0.164
AACGCACT | 0.0967
CTGGGACA | -0.103
TAGCGCAA | -0.00736
GTAGCGCA | 0.0592
GCGTATTA | 0.031
ACGGTCTC | 0.184
AGTACGCC | -0.0213

Sequence | PBM E-score
ATTAGTCG | 0.251
GGGTAGTA | -0.0752
CACATCAG | -0.139
CGGCTTAG | -0.17
ACTCCCTA | -0.0743
CCTAACAC | 0.0728
AGCGCCGC | -0.188
GTCGTCGA | -0.00575
CACCCGAA | 0.156
AATGCCGA | -0.0319
ACGAAATG | 0.282
AGCAGAGA | -0.245
GGCGAAAA | 0.0595
CCATCGCG | 0.0954
GCATTTAA | 0.111
GAAGTCCA | -0.251
AGAAGGCA | -0.166
CCGAGCAC | 0.208
GCCCAGGA | -0.293
TAACTATA | -0.0127
GCGGCAGC | -0.236
GACTAGCA | -0.182
AATCGAAT | 0.0012
ACGCTGTA | 0.13
ACGTAGGA | 0.0588

Sequence | PBM E-score
CTTTAGAA | -0.0855
CTGCCGCA | -0.178
CTATAATC | 0.111
ACAATCTA | 0.0797
GGGATGCA | -0.0848
CATCTGGG | -0.134
GCTTAGCC | -0.0171
ACGGCTTA | 0.0496
CGCACACC | 0.0889
AGACACGA | 0.218
AACTAGAG | -0.182
TGACTGAA | -0.196
ATCTACCG | 0.0613
ACTAGAGG | -0.227
GATCTAAA | 0.11
GGGAGCGA | 0.332
ATCACTCA | 0.0232
CCGAGTGA | 0.196
GACTCGCC | -0.046
